# Results reported in PubChem BioAssay (NCATS).
# This list was built around the results that the source calls inconclusive (neither active nor inactive); the mix of calls is not that of the screen. For part of these data: No potency is given beside an inconclusive call; the fits are too rough. Active and inactive are the calls of the source. Unless noted, the call rests on the fitted dose curve; in most records, active means well fitted curve in the direction sought with a large enough effect; inconclusive means small, poorly fitted or top-dose-only effect, or another doubt; inactive means no such curve, though single readings can be large; an effect the other way counts as inactive or inconclusive.
# Assays:
# Furin (Homo sapiens) = Furin (Homo sapiens) (UniProt P09958); assay: Furin counterscreen qHTS for Zika virus inhibitors (AID 1347149); conditions: furin enzymatic counterscreen, fluorogenic substrate; activity change, negative = inhibition: at 114 µM (top of the series); further: nearly all actives have a fitted effect of over 70% in size; further: potency means the concentration at half of the fitted maximal effect;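 on activity change, negative = inhibition: purified recombinant full-length human furin enzyme at 5 nM; fluorescence gain from furin cutting a BOC-RVRR-AMC peptide substrate over 15 min; top concentration of the series differs between compounds; plate controls were no-inhibitor control for no effect and no-enzyme control for full effect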
# UniProt P09958, sequence (P09958 whole entry, looked up): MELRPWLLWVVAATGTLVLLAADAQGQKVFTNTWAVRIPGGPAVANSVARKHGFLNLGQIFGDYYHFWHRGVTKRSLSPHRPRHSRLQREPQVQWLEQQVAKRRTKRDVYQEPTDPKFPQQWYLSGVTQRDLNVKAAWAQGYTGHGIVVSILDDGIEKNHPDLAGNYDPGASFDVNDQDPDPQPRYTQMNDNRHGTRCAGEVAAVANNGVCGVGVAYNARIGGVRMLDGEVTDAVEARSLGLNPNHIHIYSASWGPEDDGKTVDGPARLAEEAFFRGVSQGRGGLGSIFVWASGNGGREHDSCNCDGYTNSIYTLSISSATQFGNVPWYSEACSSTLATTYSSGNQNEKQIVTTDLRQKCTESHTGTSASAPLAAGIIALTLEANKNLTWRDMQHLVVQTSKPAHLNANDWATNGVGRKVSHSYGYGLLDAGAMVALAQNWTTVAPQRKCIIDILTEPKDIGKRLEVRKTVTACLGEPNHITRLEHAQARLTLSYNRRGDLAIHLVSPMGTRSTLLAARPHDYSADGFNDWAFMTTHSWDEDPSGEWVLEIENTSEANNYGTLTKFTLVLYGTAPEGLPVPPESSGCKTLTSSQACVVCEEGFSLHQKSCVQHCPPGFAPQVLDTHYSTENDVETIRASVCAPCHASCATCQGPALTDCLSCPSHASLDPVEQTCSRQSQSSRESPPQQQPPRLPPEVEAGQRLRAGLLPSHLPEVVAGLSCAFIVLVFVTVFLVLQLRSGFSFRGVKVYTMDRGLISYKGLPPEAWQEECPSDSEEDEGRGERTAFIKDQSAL
# Procedure, shortened: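 Fluorogenic cleavage of BOC-RVRR-AMC (2 microM final, Km ~15 µM) was monitored (ex 340, em 450 nm) at 37C after 15 min RT preincubation of 5 nM furin with compounds in HEPES pH 7.0 buffer with CaCl2 and Triton X-100. Percent inhibition was fitted to a 4-parameter Hill curve.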
# [1] = system: Zika virus NS2B-NS3 protease (linked construct); assay: Confirmatory screen NINDS AMC qHTS for Zika virus inhibitors (AID 1347152); further: nearly all actives have a fitted effect of over 70% in size; further: potency means the concentration at half of the fitted maximal effect;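 on activity change, negative = inhibition: AMC fluorescence gain from cleaved Bz-Nle-KRR-AMC substrate over 15 min; top concentration of the series differs between compounds; 0% = no-inhibitor control and -100% = no-enzyme control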
# Procedure, shortened: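 Linked NS2B-NS3 1 nM, Tris pH 8.0/0.01% Tween 20; cpd 15 min RT dark; + Nle-KRR-AMC 10 µM (Km 18.3 µM); read 0 and 15 min, 340/450 nm; %inh vs controls, 4-param Hill.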
# [2] = system: Zika virus NS2B-NS3 protease; assay: Primary screen GU AMC qHTS for Zika virus inhibitors (AID 1347154); further: potency means the concentration at half of the fitted maximal effect; nearly all actives have a fitted effect of over 70% in size
# Procedure, shortened: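 Unlinked Zika NS2B hydrophilic domain–NS3 protease complex at 25 nM in 10 mM Tris-HCl pH 8.0, 0.01% Tween 20, with an AMC peptide substrate. Fluorescence change (340/450 nm) over 15 min at room temperature, normalized to controls, fitted to 4-parameter Hill.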
# [3] = ZIKV-mCherry secondary qHTS for Zika virus inhibitors (AID 1347158); conditions: Vero cells, ZIKV-mCherry infection imaging, 48-72 h; activity change, negative = inhibition: at 49.2 µM (top of the series); further: potency means the concentration at half of the fitted maximal effect
# Procedure, shortened: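 Vero cells, 5,000/well, plated overnight at 37 °C, then compound added and infected with recombinant ZIKV-mCherry at MOI 1 for 48-72 h. PFA-fixed, Hoechst nuclear stain, high-content imaging; cells with mCherry intensity above 450 RFU scored infected, reported as percent infection.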
# [4] = system: Zika virus NS2B-NS3 protease (linked construct); assay: 384 well plate NINDS Rhodamine confirmatory qHTS for Zika virus inhibitors (AID 1347164);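 further: fluorescence from protease cleavage of Ac-LKRR-rhodamine 110 substrate; potency means the concentration at half of the fitted maximal effect; nearly all actives have a fitted effect of over 65% in size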
# Procedure, shortened: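 Fluorescence read at ex 485 nm/em 538 nm, 25 min after adding 10 microM Ac-LKRR-Rd substrate at room temperature in the dark; signal normalized to no-enzyme and no-inhibitor controls. Enzyme final 5, 30 or 60 nM; compounds, ~15 min preincubation.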
# [5] = Tertiary RLuc qRT-PCR qHTS assay for Zika virus inhibitors (AID 1347169); further: nearly all actives have a fitted effect of over 55% in size; further: potency means the concentration at half of the fitted maximal effect; on activity change, negative = inhibition: top concentration of the series differs between compounds; on the % scale 0 is the no-effect control and ±100 the full control effect
# Procedure, shortened: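 Luminescence read-out: live-cell Renilla luciferase substrate applied to infected Vero cells, signal measured after 1-1.5 hrs. Cells had received compound before ZIKV-RLuc (Cambodian strain, MOI 1-2) infection and were incubated 48-72 hrs at 37 degrees C.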
# [6] = system: Zika virus NS2B-NS3 protease (unlinked); assay: Optimization of GU AMC qHTS for Zika virus inhibitors: Unlinked NS2B-NS3 protease assay (AID 1347151); conditions: recombinant ZIKV NS2B-NS3 protease, fluorogenic AMC substrate; activity change, negative = inhibition: at 52.5 µM (top of the series) unless noted; further: potency means the concentration at half of the fitted maximal effect; nearly all actives have a fitted effect of over 80% in size
# Procedure, shortened: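 Fluorescence read-out (340 nm ex / 450 nm em) of AMC peptide cleavage, taken immediately and after 15 min at room temperature (~20% conversion). Enzyme was the unlinked NS2B–NS3 complex at 25 nM in Tris pH 8.0 buffer.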
# [7] = system: Zika virus NS2B-NS3 protease (linked); assay: 384 well plate NINDS AMC confirmatory qHTS for Zika virus inhibitors (AID 1347163); further: potency means the concentration at half of the fitted maximal effect; nearly all actives have a fitted effect of over 50% in size
# Procedure, shortened: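 Linked protease 5/30/60 nM final; cpds up to 1 mM final, ~15 min preinc. Substrate Ac-VKTGKR-AMC 30 microM final. RT, dark, 25 min; FI ex 355/em 460; normalized to no-enzyme/no-inhibitor ctrls.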
# [8] = Primary qHTS for small molecule stabilizers of the endoplasmic reticulum resident proteome: Secreted ER Calcium Modulated Protein (SERCaMP) assay (AID 1508630); conditions: SH-SY5Y GLuc-SERCaMP (Gaussia luciferase released on ER calcium loss) secretion, thapsigargin, luminescence; activity change, negative = inhibition: at 38.4 µM (top of the series) unless noted; further: on the % scale 0 is the no-effect control and ±100 the full control effect
# Procedure, shortened: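 GLuc-SERCaMP-expressing SH-SY5Y cells, pretreated 16 h with compound, are challenged with thapsigargin to empty ER calcium stores; after 4 h, coelenterazine is added directly to the medium and luminescence is imaged.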
# [9] = target: 3',5'-cyclic-AMP phosphodiesterase 4B (Homo sapiens) (UniProt Q07343); assay: qHTS Assay for Inhibitors of PDE-IV (AID 607; active means well fitted activation curve with a large enough effect in the main read-out, with a control signal flat, not every such curve was filed as active; inconclusive means small, poorly fitted or top-dose-only effect, or effect the other way, or a change in a side signal; further: potency means the concentration at half of the fitted maximal effect); conditions: HEK293 ACTOne CNG channel cells, membrane potential fluorescence; activation (PDE inhibition): at 22.9 µM (top of the series)
# UniProt Q07343, sequence (Q07343 whole entry, looked up): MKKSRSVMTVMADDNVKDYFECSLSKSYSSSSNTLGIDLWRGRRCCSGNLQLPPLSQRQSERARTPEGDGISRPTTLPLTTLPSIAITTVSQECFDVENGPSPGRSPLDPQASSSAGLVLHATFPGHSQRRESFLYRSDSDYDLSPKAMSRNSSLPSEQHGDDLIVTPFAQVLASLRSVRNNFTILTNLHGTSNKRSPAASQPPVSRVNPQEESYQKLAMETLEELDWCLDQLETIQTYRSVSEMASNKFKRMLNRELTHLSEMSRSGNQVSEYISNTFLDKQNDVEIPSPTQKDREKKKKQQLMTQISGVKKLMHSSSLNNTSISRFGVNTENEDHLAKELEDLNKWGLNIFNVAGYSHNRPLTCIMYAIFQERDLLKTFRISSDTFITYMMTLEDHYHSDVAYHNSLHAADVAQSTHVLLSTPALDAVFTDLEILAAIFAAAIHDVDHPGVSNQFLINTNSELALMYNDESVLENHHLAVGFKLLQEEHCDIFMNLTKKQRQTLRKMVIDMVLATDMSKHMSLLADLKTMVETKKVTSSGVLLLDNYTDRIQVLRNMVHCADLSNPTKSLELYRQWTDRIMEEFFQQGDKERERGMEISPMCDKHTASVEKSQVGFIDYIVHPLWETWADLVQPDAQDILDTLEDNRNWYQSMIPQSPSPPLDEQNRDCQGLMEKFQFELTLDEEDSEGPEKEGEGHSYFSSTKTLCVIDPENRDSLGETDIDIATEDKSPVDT
# Procedure, shortened: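 HEK293 ACTOne cells with CNG channel (1000/well), endogenous PDE4; membrane potential dye, compounds up to 22.9 uM final. Fluorescence Ex 535/Em 590; RO 20-1724 (100 uM final) as reference.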
# [10] = qHTS Assay for Identification of Small Molecule Antagonists for NFkB Signaling Pathway (AID 895; active means well fitted inhibition curve with a large enough effect in the signal ratio, with a control signal flat, not every such curve was filed as active; inconclusive means small, poorly fitted or top-dose-only effect, or effect the other way, or a change in a side signal; the % refers to the signal ratio; further: on the % scale 0 is the no-effect control and ±100 the full control effect); conditions: NFkB beta-lactamase reporter cells, FRET ratio 460/530, stimulated with 10 pM TNF alpha; activity change, negative = inhibition: at 38.3 µM (top of the series)
# Procedure, shortened: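 ME-180 NFkB-bla cells (beta-lactamase under NFkB response element), plated overnight, treated with compound then 10 pM TNF alpha (about EC50) for 5 hrs at 37 C. LiveBLAzer FRET read at 460/530 nm emission, 405 nm excitation.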
# [11] = target: RecQ-like DNA helicase BLM (Homo sapiens) (UniProt P54132); assay: qHTS Validation Assay for Inhibitors of Bloom's syndrome helicase (BLM) (AID 2364); further: potency means the concentration at half of the fitted maximal effect
# UniProt P54132, sequence (P54132 whole entry, looked up): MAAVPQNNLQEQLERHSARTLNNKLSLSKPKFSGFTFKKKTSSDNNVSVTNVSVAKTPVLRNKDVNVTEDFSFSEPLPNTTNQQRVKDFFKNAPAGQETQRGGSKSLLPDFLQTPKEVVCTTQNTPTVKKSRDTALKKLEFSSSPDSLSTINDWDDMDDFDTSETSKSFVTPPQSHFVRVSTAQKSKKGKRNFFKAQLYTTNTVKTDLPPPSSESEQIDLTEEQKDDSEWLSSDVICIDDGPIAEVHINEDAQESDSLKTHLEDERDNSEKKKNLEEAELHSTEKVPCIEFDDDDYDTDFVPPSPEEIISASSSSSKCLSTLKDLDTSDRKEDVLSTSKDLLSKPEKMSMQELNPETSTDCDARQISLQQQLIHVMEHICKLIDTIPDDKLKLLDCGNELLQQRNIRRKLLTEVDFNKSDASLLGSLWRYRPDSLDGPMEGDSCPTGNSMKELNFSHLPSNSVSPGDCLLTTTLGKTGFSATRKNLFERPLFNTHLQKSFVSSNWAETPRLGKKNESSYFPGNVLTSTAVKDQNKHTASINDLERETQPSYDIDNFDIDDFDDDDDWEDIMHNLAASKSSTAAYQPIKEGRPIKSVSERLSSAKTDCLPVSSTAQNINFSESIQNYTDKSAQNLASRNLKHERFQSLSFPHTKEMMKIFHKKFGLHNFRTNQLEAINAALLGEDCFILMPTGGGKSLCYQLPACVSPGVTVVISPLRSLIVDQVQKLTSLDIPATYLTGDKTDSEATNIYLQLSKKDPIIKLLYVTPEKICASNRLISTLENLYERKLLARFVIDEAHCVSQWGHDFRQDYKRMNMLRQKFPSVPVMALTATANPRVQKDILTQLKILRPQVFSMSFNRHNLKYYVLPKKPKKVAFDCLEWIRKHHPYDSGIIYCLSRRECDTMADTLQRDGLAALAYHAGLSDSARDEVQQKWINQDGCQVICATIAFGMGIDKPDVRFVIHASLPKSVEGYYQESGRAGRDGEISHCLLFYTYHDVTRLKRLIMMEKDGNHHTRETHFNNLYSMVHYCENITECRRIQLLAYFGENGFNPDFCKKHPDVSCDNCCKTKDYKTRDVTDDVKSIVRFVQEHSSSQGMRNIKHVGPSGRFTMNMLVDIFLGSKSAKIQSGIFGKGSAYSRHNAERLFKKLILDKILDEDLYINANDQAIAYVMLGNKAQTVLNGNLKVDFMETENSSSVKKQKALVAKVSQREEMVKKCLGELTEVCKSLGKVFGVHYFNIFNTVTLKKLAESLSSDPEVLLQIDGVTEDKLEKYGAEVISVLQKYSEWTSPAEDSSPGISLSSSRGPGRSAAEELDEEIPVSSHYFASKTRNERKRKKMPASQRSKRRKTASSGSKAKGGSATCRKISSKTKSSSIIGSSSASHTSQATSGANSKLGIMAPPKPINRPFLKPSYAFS
# Procedure, shortened: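 50 nM BLM preincubated 15 min at room temperature with compound in pH 8.0 Tris buffer containing 2.5 ug/ml poly(dI-dC); started with 200 nM TAMRA/BHQ-2 forked duplex and 2 mM ATP (final). Unwinding read as TAMRA fluorescence increase, two reads 2 h apart.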
# [12] = target: ATP-dependent 6-phosphofructokinase (Trypanosoma brucei brucei) (UniProt O15648); assay: qHTS Validation Assay to Find Inhibitors of T. brucei phosphofructokinase (AID 485368); further: potency means the concentration at half of the fitted maximal effect
# UniProt O15648, sequence (O15648 whole entry, looked up): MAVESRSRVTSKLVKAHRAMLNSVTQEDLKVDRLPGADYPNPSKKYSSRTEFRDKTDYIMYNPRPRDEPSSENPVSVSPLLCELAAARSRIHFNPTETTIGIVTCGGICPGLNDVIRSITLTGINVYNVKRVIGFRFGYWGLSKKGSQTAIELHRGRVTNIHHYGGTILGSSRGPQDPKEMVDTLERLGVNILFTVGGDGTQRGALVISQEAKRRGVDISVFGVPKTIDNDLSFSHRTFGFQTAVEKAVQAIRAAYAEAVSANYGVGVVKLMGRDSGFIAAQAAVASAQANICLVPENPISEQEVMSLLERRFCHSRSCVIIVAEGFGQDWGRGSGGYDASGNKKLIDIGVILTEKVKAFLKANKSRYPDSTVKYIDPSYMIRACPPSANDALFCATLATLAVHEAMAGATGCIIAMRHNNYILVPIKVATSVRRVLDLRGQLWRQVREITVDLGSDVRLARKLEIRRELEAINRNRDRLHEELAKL
# Procedure, shortened: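 Activity was read as ADP production by luminescence (ADP-Glo) after 45 min at room temperature. The enzyme was 1.25nM PFK in 0.1M TEA pH 8.0 with 0.5 mM F6P, 0.1mM ATP and 5 mM MgCl2. Compounds were titrated up to 57 uM and % activity normalized to no-enzyme and full-enzyme controls.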
# [13] = target: Ubiquitin carboxyl-terminal hydrolase 1 (Homo sapiens) (UniProt O94782); assay: Inhibitors of USP1/UAF1: Pilot qHTS (AID 504865);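 further: rhodamine fluorescence freed from ubiquitin-rhodamine substrate followed over time; potency means the concentration at half of the fitted maximal effect; nearly all actives have a fitted effect of over 35% in size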
# UniProt O94782, sequence (O94782 whole entry, looked up): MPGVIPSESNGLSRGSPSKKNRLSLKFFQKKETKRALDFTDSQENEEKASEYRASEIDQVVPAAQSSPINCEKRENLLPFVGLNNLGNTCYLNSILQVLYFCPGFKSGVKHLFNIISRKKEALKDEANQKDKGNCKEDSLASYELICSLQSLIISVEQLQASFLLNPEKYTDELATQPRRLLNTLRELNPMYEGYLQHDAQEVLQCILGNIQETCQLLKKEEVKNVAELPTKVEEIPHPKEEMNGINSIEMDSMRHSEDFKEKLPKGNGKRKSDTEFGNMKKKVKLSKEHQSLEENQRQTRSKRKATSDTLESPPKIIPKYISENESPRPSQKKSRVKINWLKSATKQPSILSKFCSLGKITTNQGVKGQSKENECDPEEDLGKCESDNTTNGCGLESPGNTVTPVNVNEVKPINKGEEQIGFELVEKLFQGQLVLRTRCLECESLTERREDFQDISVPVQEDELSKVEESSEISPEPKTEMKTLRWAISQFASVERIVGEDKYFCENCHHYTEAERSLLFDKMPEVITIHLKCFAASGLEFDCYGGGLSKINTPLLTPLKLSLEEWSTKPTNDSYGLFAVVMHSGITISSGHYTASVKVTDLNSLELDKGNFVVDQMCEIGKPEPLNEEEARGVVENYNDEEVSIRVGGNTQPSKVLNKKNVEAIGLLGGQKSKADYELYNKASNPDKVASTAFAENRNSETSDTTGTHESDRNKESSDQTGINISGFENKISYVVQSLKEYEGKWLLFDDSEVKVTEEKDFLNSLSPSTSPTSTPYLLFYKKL
# Procedure, shortened: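 1nM USP1/UAF1 + cpd, 15 min RT; start w/ Ub-Rho 150nM final; kinetic FL 480/540 nm, 6 reads q60 s. Buffer 50mM HEPES pH 7.8, 0.5mM EDTA, 1mM TCEP, 0.01% Tween-20, 0.1 mg/ml BSA.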
# [14] = Confirmatory screen NINDS Rhodamine qHTS for Zika virus inhibitors (AID 1347161); further: potency means the concentration at half of the fitted maximal effect; nearly all actives have a fitted effect of over 60% in size
# Procedure, shortened: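 Purified linked NS2B-NS3 protease (NS2B hydrophilic domain joined to NS3 protease by flexible linker), 25 nM in 10 mM Tris-HCl pH 8.0, 0.01% Tween 20. Compounds titrated, 15 min preincubation at room temperature; 1.5 microM Rhodamine110 substrate, FITC fluorescence change over 15 min.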
# Tags describe the fitted curve by direction and shape.
smiles,measurement,setting,value
CC1(C(=O)O)NCCc2cc(O)c(O)cc21 (stereo unspecified),Potency,Furin (Homo sapiens),active: 24.1 µM
same,Potency,[1],"inconclusive [inhibitor, partial curve, poor fit]"
same,Potency,[2],active: 10.6 µM
same,Potency,[3],"inconclusive [inhibitor, partial curve, poor fit]"
same,Potency,[4],"inconclusive [inhibitor, full curve]"
same,Potency,[5],inactive
S=c1[nH]c(-c2ccccc2)cn1-c1ccccc1,Potency,Furin (Homo sapiens),"inconclusive [inhibitor, partial curve]"
same,Potency,[6],active: 26.7 µM
CC1OC(OC2C(O)CC(OC3C(O)CC(OC4CCC5(C)C(CCC6C5CC(O)C5(C)C(C7=CC(=O)OC7)CCC65O)C4)OC3C)OC2C)CC(O)C1O (stereo unspecified),Potency,Furin (Homo sapiens),inactive
same,Potency,[6],"inconclusive [inhibitor, partial curve, poor fit]"
C[S+](=O)([O-])c1ccc(OCC2CN(Cc3ccccc3)C(=O)c3c(ccnc3-c3ccc(OCC(=O)O)cc3)O2)cc1 (stereo unspecified),Potency,Furin (Homo sapiens),"inconclusive [inhibitor, partial curve, poor fit]"
same,Potency,[1],inactive
CCCCc1nn(-c2ccccc2C(F)(F)F)c(=O)n1Cc1ccc(-c2ccccc2S(=O)(=O)NC(=O)c2sccc2C)cc1,Potency,Furin (Homo sapiens),"inconclusive [inhibitor, partial curve, poor fit]"
same,Potency,[1],active: 24.1 µM
same,Potency,[2],active: 21.2 µM
same,Potency,[3],"inconclusive [inhibitor, partial curve, poor fit]"
same,Potency,[7],"inconclusive [inhibitor, full curve, poor fit]"
same,Potency,[4],active: 28.2 µM
same,Potency,[5],"inconclusive [inhibitor, partial curve]"
same,Potency,[8],inactive
O=C(CSc1ncccc1C(=O)Oc1ccccc1Cl)Nc1ccccc1Cl,Potency,Furin (Homo sapiens),inactive
C=NC(C(=O)N[C@H]1C(=O)N2C1SC(C)(C)C2C(=O)O)c1ccccc1 (stereo partly specified),Potency,Furin (Homo sapiens),"inconclusive [inhibitor, single point]"
same,Potency,[1],"inconclusive [inhibitor, partial curve]"
same,Potency,[2],active: 26.7 µM
N#C/C(=C\c1ccc(Br)cc1)c1nc(-c2cc3cc(Br)ccc3oc2=O)cs1,Potency,Furin (Homo sapiens),inactive
O=C(O)c1ccccc1Nc1cccc(OCc2ccc3ccccc3n2)c1,Potency,[9],"inconclusive [activator, partial curve]"
same,"activity change, negative = inhibition",[10],inconclusive: 38.7%
same,Potency,[11],"inconclusive [inhibitor, partial curve, poor fit]"
same,Potency,[12],"inconclusive [falling, single point]"
same,Potency,[13],"inconclusive [inhibitor, partial curve]"
same,Potency,[1],"inconclusive [inhibitor, partial curve]"
same,Potency,[3],"inconclusive [inhibitor, full curve]"
same,Potency,[5],"inconclusive [inhibitor, partial curve, poor fit]"
Cn1c(=O)c2[nH]c(-c3ccccc3)nc2n(C)c1=O,Potency,[10],inactive
same,Potency,[11],"inconclusive [inhibitor, full curve, poor fit]"
same,Potency,Furin (Homo sapiens),"inconclusive [inhibitor, single point]"
same,Potency,[6],active: 4.74 µM
same,Potency,[1],active: 21.5 µM
same,Potency,[14],"inconclusive [inhibitor, full curve, poor fit]"
CO[C@H]1C[C@@H](O[C@@H]2/C(C)=C/C[C@@H]3C[C@@H](C[C@]4(CC[C@H](C)[C@@H](C5CCCCC5)O4)O3)OC(=O)[C@@H]3C=C(C)/C(=N/O)[C@H]4OC/C(=C\C=C\[C@@H]2C)[C@]43O)O[C@@H](C)[C@H]1O,Potency,Furin (Homo sapiens),"inconclusive [inhibitor, full curve, poor fit]"
same,Potency,[6],"inconclusive [inhibitor, full curve]"
same,Potency,[1],"inconclusive [inhibitor, full curve, poor fit]"
same,Potency,[2],"inconclusive [inhibitor, partial curve, poor fit]"
same,Potency,[3],"inconclusive [inhibitor, full curve, poor fit]"
same,Potency,[7],"inconclusive [inhibitor, single point]"
same,Potency,[4],"inconclusive [inhibitor, full curve, poor fit]"
same,Potency,[5],"inconclusive [inhibitor, full curve]"
Clc1nc2n[nH]nc2nc1Cl,Potency,Furin (Homo sapiens),active: 39.8 µM
same,Potency,[1],active: 22.4 µM
same,Potency,[7],"inconclusive [inhibitor, full curve]"
same,Potency,[4],"inconclusive [inhibitor, full curve, poor fit]"
